Results: the supplement of paper PMC3694890
± gives the uncertainty stated by the source. The list shows a part of the results. Phosphotyrosine is written y.

Target: GRB2 (endogenous complexes from cell lysate), P62993
Assay: GRB2 complex binding differential signal (pY peptide minus Ala control peptide) (fluorescence intensity units); higher = stronger GRB2 complex binding
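Also: phosphopeptide probes on the chip at 1–4 µM, lysate proteins bound in 20 mM Tris pH 7.0 buffer with 140 mM NaCl, 1% Triton X-100 and 5% glycerol.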

Binder	GRB2 complex binding differential signal (MCF7)	GRB2 complex binding differential signal (MCF10A)	GRB2 complex binding differential signal (MDA-MB-231)	GRB2 complex binding differential signal (T47D)
yTSSVG [BTK_551/A1]	1300 ± 980	1900 ± 410	1100 ± 390	1330 ± 1800
yDVPPR [CBLB_665/A1]	4610 ± 800	2730 ± 530	923 ± 430	681 ± 2000
yKIPSS [CBLB_709/A1]	15200 ± 2700	6970 ± 710	1850 ± 1400	3380 ± 1600
yGMSSR [BSN_3422/A1]	1760 ± 370	561 ± 340	435 ± 290	619 ± 1500
yDYMPM [BTK_223/A1]	-518 ± 970	59.9 ± 250	429 ± 300	338 ± 1000
yEYDFE [BTK_40/A1]	-89.6 ± 400	57.1 ± 410	0.592 ± 190	159 ± 1200
yGEVYE [ABL1_253/A1]	46.6 ± 280	-44.5 ± 420	196 ± 290	14.6 ± 850
yYGMSS [BSN_3421/A1]	158 ± 280	80.9 ± 240	926 ± 460	2320 ± 1100
yCEMGS [CBL_371/A1]	287 ± 220	20.9 ± 150	133 ± 320	336 ± 1200
yMDGHL [CAC1F_1780/A1]	656 ± 470	358 ± 260	271 ± 230	410 ± 1100
yPVSQQ [BTK_375/A1]	328 ± 510	837 ± 330	443 ± 370	420 ± 970
yDDDDD [CBL_455/A1]	169 ± 220	-120 ± 230	245 ± 240	-4.66 ± 1000
yYLAEK [BTK_344/A1]	239 ± 470	63.1 ± 370	360 ± 550	1010 ± 1300
yDQLPS [CBLB_889/A1]	1320 ± 490	1090 ± 430	753 ± 410	1400 ± 1200
yEENSQ [CBL_141/A1]	516 ± 150	981 ± 480	590 ± 350	164 ± 1600
yHQHNS [BTK_361/A1]	1220 ± 360	57.7 ± 460	653 ± 320	835 ± 1000
yILSME [CASP9_153 /A1]	-1590 ± 3100	11 ± 620	869 ± 360	358 ± 1100
